# Screen size: about 65,000 compounds; about 40 (0.06%) were called active. This list was built around the results that the source calls inconclusive (neither active nor inactive); the mix of calls is not that of the screen. Calls follow the shape of the dose curve; as a rule, active = well fitted activation curve with a large enough effect; inconclusive = small, poorly fitted or top-dose-only effect; inactive = flat fitted curve, though single readings scatter. No potency is given beside an inconclusive call; the fits are too rough.
# Experiment: qHTS Assay for Modulators of Hemoglobin Beta Chain Splicing; as to activation: 0% is about no effect
# Details: HBB splicing reporter cell assay, EGFP reporter with mutant IVS2-654 intron; Potency: activation; activation: at 46.1 µM (top of the series), normalised to 500 nM splice-correcting PNA
# Outline: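 HeLa cells stably expressing EGFP interrupted by mutant beta-globin intron 2 (IVS2-654), 500/well in 2% FCS. Treated with compound for 2 days at 37C. Splicing correction scored as total well GFP intensity (488 nm excitation, 500-520 nm emission); 500 nM antisense PNA served as control.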
# Potency is read from the fitted curve at half-maximal effect.
Compound,Potency,activation
OCCN1CCN(c2nc(-c3ccccc3)nc3c2oc2ccccc23)CC1,inactive,
COc1cc(OC)c(OC)cc1CN(C)CCc1ccccn1,inactive,
CN1CCN(c2ncc3nc(-c4cccs4)c(=O)n(CCc4ccccc4)c3n2)CC1,,inconclusive: 16.4% [activator]
CCn1c(SCC(=O)c2c[nH]c3ccccc23)nnc1-c1cccs1,"inconclusive [activator, single point]",
Cc1ccc(/C=c2\s/c(=C(/C#N)C(=O)N3CCCC3)n(Cc3ccco3)c2=O)s1,"inconclusive [activator, single point]",
O=C(c1ccc(Cl)c(Cl)c1)N(Cc1ccco1)c1ccc(O)cc1,inactive,
COc1ccc(COn2c(=O)c(C)[n+]([O-])c3ccccc32)cc1OC,"inconclusive [activator, single point]",
Nc1ccccc1O,,inconclusive: 15.4% [activator]
CCCn1c(=N)n(CC(O)COc2cccc(C)c2)c2ccccc21 (stereo not given),inactive,
Cc1cc(C)nc(Nc2ccc(N3CCCC3)cc2)n1,inactive,
N#CCCn1c(=O)c(-c2ccc(Cl)cc2)nc2cnc(Nc3ccccc3)nc21,"inconclusive [activator, partial curve]",
COc1ccc(Oc2ncc3nc(C)c(=O)n(Cc4cccs4)c3n2)cc1,"inconclusive [activator, single point]",
Cc1ccc(S(=O)(=O)NC2=NCN(C3CCN(Cc4ccccc4)CC3)CN2)cc1,,inconclusive: 12.8% [activator]
CCCCN(C)CCNC(=O)Cn1ncc2c(=O)oc3ccc(C)cc3c21,"inconclusive [activator, single point]",
O=C(CCC1COc2ccccc2O1)Nc1ccc(Cl)cn1 (stereo not given),"inconclusive [activator, single point]",
COc1cccc(Cn2c(=O)c(-c3cccs3)nc3cnc(Nc4cccc(OC)c4)nc32)c1,active: 10 µM,
COc1ccc(CCNC(=O)c2cc3c(=O)n4cccc(C)c4nc3n(Cc3ccncc3)c2=N)cc1,,"inactive: -1.67% [at 1.84 µM, normalised to 500 nM splice-correcting PNA]"
O=C(NCc1ccc2c(c1)OCO2)c1ccc(COc2cccc(Cl)c2)o1,inactive,
CC1(C)OCC(CSC2=C(SCC3COC(C)(C)O3)C(=O)c3ncccc3C2=O)O1 (stereo not given),,inconclusive: 18.4% [activator]
CCN(CC)c1ccc(C=N/C(C#N)=C(\N)C#N)cc1,"inconclusive [activator, single point]",

# From PubChem BioAssay AID925 (National Center for Advancing Translational Sciences (NCATS), 2007)
